# ± gives the standard deviation of the averaged measurements. This is one part of the list.
# Tested on: PfAP2-EXP AP2 domain (GST-tagged)
# Assay: gcPBM binding intensity (ln(normalized median fluorescence intensity)); higher = stronger DNA binding
# Outline: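 Binding intensity is the highest Masliner-normalised natural-log median intensity over replicate spots in either probe orientation. To obtain it, GST-tagged P. falciparum DNA-binding domains made in E. coli were incubated for 1 h on an Agilent 4 × 180k array of primer-extended double-stranded 36-bp intergenic genomic probes plus negative controls. Detection used Alexa488 anti-GST antibody with scanning at 488 nm.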
row,Sequence,gcPBM binding intensity (ln)
1,TATTTATTTATATATGCATGCTAATAATTATAACAT [TGCATGCA_site988],9.29 ± 0.6
2,AATGAAGACTTTTTTACACACTTCATATATTATATA [CACACA_site2034],8.81 ± 0.36
3,GTATAATTGGAAATTACACACCTTATAATGTAACAT [CACACA_site6091],8.38 ± 0.33
4,AATGATTTTAAAAAATGTACTTTATAAACAAAATTA [XGTACX_site3803],8.27 ± 0.32
5,TAAATTAGAATAAATACACACAAATTAGAATTCTAT [CACACA_site7781],8.61 ± 0.72
6,TTTTTTTTTGTTAGTTGTACGTTAAATGAATTTACT [XGTACX_site7675],8.71 ± 0.32
7,TAAAGTGTCAAATTCACACACATATATATATATATA [CACACA_site1380],10.1 ± 0.57
8,TAAAAAAGTTATATTACACACTTTATTGGTTAACTT [CACACA_site653],8.17 ± 0.45
9,ACATATAAATTATATACACACAATAATATATATATA [CACACA_site1384],9.47 ± 0.36
10,TATTTATAAAAAAAATGTACATTTATGTATAAGCTA [XGTACX_site3266],8.62 ± 0.47
11,ATAATGTTTCTTTCAACACACAAAAAATGAACCCAT [CACACA_site4947],8.85 ± 0.49
12,AATATCAATATTATATGTACTTATAATTTCAATGTA [XGTACX_site2423],8.44 ± 0.28
13,TAAATTTATTAATCAAGTACAAAATAAATTTTTATA [XGTACX_site2745],8.1 ± 0.41
14,TATATATAGAAACACACACACACATATATATATATA [CACACA_site4116],10.1 ± 0.39
15,AAAATTTAATATAATGCACACATAAAAAAAAAATCA [CACACA_site7882],8.725 ± 0.035
16,ATCATGTTATATATATGTACTAATAATATAATATAA [XGTACX_site1326],8.29 ± 0.34
17,AGTCGAATGATGTACACACATACAAAACATTTATGC [CACACA_site4022],8.91 ± 0.71
18,AGTTTATATTATTAAAGTACATATATATATTCTTAA [XGTACX_site3164],8.39 ± 0.33
19,TACTAACTTTTTAAAAGTACAGAACCATAACCATAA [XGTACX_site7182],8.85 ± 0.39
20,GAATAATCTAGAAACACACAAACACGACAAAAGAAA [CACACA_site4135],8.93 ± 0.55
21,ATATATATATATATATGGTAAAGTAAAAGGAAATAC [XGTACX_negctrl_site45],10.3 ± 0.3
22,TATATATTATAAAAGAGTACAGAAAGAAAAAAAAAT [XGTACX_site8305],9.12 ± 0.59
23,AAACTTTTTTTAAAAACACACATATATATTTATATA [CACACA_site4092],8.36 ± 0.41

row,Sequence,gcPBM binding intensity (ln)
1,ATATTCAATATATTATGTACACATATATGAGGATAT [XGTACX_site7019],8.65 ± 0.41
2,AGTATATTAATATAATGTACAAACGTTTATTTTGTA [XGTACX_site5980],8.59 ± 0.42
3,GTTTAAAATCTTTGCACACATATAAATAAATATATT [CACACA_site2555],8.63 ± 0.15
4,AAATATCTACATATTTGTACATATTTATACATATTT [XGTACX_site6300],8.23 ± 0.3
5,GAAAAGTAGACAATATGTACATATAGTATTTATAAA [XGTACX_site878],8.6 ± 0.42
6,AGCAACCCCCTAGCTACACACATATAGATATAAATA [CACACA_site6577],9.63 ± 0.36
7,ACTGTCATTTATTGTAGTACGTCAATTTATTACATT [XGTACX_site2749],8.87 ± 0.29
8,TGTTACAAAAAATAATGTACTTAATATATATATATA [XGTACX_site1016],9.74 ± 0.33
9,TATCTTCATTTTTTTGGTACGCACGCAAATATGGCT [XGTACX_site3107],8.79 ± 0.52
10,TAAATACATTTATGTACACACACATAGATGTATATT [CACACA_site5618],8.34 ± 0.22
11,TGTTTTCTTGATTATTGTACTTTAATTAGTAATATG [XGTACX_site8674],8.7 ± 0.37
12,TGAATATTCATGTGTGTGCGCATGTTGTTAGACCAT [GTGCAC_site9869],9.02 ± 0.38
13,AAAAATATTATAAGCACACATATATATATATATATA [CACACA_site2458],10.3 ± 0.28
14,TATAATATGTTATATACACACATTATAAAATACACA [CACACA_site6742],8.49 ± 0.37
15,AAAAAAAAAATTAATTGTACTAAAAAAATATTATAT [XGTACX_site8903],8.41 ± 0.37
16,TAATAATAAATAAAATGTACATATGAACAAATAAGT [XGTACX_site6710],9.14 ± 0.3
17,ATATATATATATATATGTACATACATACAATCATAT [XGTACX_site6410],10.3 ± 0.45
18,ATGTTGTACAGACACACACACAAAAAAAAAATAAAA [CACACA_site7184],8.62 ± 0.54
19,TATAAATTTTGTTTAGCACACACACCGACATACATA [CACACA_site9033],8.83 ± 0.47
20,CTTACATATTACATATGTACATATACACCTTATGTC [XGTACX_site4679],8.69 ± 0.37
21,TATAATAGCTTCTTTACACACACCATTTTTTTTTTT [CACACA_site1456],8.59 ± 0.26
22,ATATATTTTTAATTTGCATGTAGTAAAGCCTTAAAT [TGCATGCA_site593],8.88 ± 0.25
23,CATCAAGTGAATTGTTGTACTTTACATTGTTTTTAT [XGTACX_site7261],9.09 ± 0.59

row,Sequence,gcPBM binding intensity (ln)
1,TTTAATTTTTATATAACACACATATTGGAATTATGT [CACACA_site734],8.37 ± 0.38
2,TTATGTATTACCTGCCGTACTTCTAAAATAATTAAA [XGTACX_site1716],8.81 ± 0.38
3,TTTTTTACATACAGAAATATATAATATAAAATAAAT [GTGCAC_negctrl_site278],8.28 ± 0.52
4,TTAAATGTGAAGTGAATACACACCTAATAAATATAA [CACACA_site3194],8.33 ± 0.38
5,ATATATTTACTTAATACACACAAAAAAAAAAAAAAA [CACACA_site3657],8.21 ± 0.52
6,GAATCCTTAATATGAACACACAAATATATTACCCAT [CACACA_site186],8.63 ± 0.48
7,TTTTGTTATTTTTCAGTGCAATATGATAATAATATA,8.71 ± 0.23
8,AGAATTTTATTATATTGTACTTTTTATAAACCTTGT [XGTACX_site7495],8.52 ± 0.4
9,TCTTTTTAACAAAAAAAAAAAAAAAAAAAAAAATTA [CACACA_negctrl_site1637],7.84 ± 0.33
10,TACATTTATACTACTGCATTCAAAAAAAATAAAAAA [TGCATGCA_negctrl_site157],8.31 ± 0.3
11,TGCTTATTTAGAATTGTGCACAGCGAATATTCTGTT,8.85 ± 0.3
12,TTTTTTTTTTCAAATACATGCATTTATGTATAATAC [TGCATGCA_site722],9.07 ± 0.31
13,TAGGAAAAAAATACAGTGCAATTTTTATATAAATAA [GTGCAC_site9979],8.55 ± 0.43
14,TTTATATAAATCAAATGTACATATTCCAAATATATA [XGTACX_site8515],8.38 ± 0.39
15,TACATATTTTATAACTGTACTTTTTTATTATCCAAT [XGTACX_site5396],8.69 ± 0.35
16,TTTTTTTTTTTTTTGTGTACTAATATTATAAATTTT [XGTACX_site4405],8.29 ± 0.13
17,AGAAAAGATAAAAATAGTACATATATATTTACTTAT [XGTACX_site7820],8.38 ± 0.38
18,TATATTATTTTTAGAAGTACTTATTGTTATAATTCT [XGTACX_site1015],8.42 ± 0.37
19,CTCCTTTCAAAAAAATGTACATGTTTACATTTCAAG [XGTACX_site7342],8.72 ± 0.4
20,ATAAATATTTATAACAGTACATATTTACTATCCTAA [XGTACX_site4497],8.29 ± 0.29
21,TTATATATAATATGACGTACAATTATACATTTTATG [XGTACX_site7598],8.51 ± 0.28
22,TATACACATATTTTTACACACATATTTTTTCATATA [CACACA_site7244],8.7 ± 0.38
23,ACGATTAAATCGATAATACACACTAAATGTAAAACA [CACACA_site119],8.63 ± 0.49

row,Sequence,gcPBM binding intensity (ln)
1,ATTTATTTGAAGAATTGTACTAAATTATATAGCGGT [XGTACX_site4998],8.76 ± 0.39
2,TATAAAAAAATATATATATATATTATATGTGTAGAA [TGCATGCA_negctrl_site391],8.63 ± 0.42
3,ATTTTAATTTGTTATACACACACAAAAAAAATTATA [CACACA_site9306],8.38 ± 0.45
4,TATATCAAAATACATACACACATTTGTATTTACATT [CACACA_site5485],8.39 ± 0.35
5,TTTTTTTTTAATCATGCACACTGTTAAAAGAATAAA [CACACA_site4817],8.46 ± 0.28
6,TATATATGGGTACTAATTCCTTTAATTTCTTTAATT [CACACA_negctrl_site949],8.4 ± 0.35
7,TAGTAAAAGATATACACACACCAAAAAATATAATTA [CACACA_site7142],8.65 ± 0.52
8,AATTATATTCAAAATGGTACACACAATATTTAATTG [XGTACX_site5521],8.46 ± 0.4
9,AAAAAAAAATTAGGGGTGCCATTTGCTGCTGTGCTT [GTGCAC_site9913],8.39 ± 0.49
10,TTTTGTATTTCTCACACACACATAAGTAAACAATAA [CACACA_site5105],8.7 ± 0.43
11,ATTAATATGAATAAAACACACATATATAACTTGTAA [CACACA_site6989],8.43 ± 0.37
12,AAAAATTTGGCATACACACACACACGCACACGCACA [CACACA_site6422],8.66 ± 0.52
13,AATTATACTCACGTTACACACACACTATAAATATAT [CACACA_site7863],8.85 ± 0.42
14,CCTATAAAACCATATACACACATATAAATAAAAAAA [CACACA_site7809],8.63 ± 0.45
15,TAAACTATATTTACATGTACATATAATATTAAATAA [XGTACX_site3528],8.45 ± 0.31
16,TGATAATAAGCATACACACACACACCCAAAAAAAAA [CACACA_site721],8.67 ± 0.48
17,TATTACATTATTCAAAAAAATTTATATGGTTATAGG [CACACA_negctrl_site1657],8.13 ± 0.42
18,ATATATATATATATATATATATATATGATTATTACT [GTGCAC_negctrl_site109],10.2 ± 0.56
19,TTTTTTTTTTCTTTTTTTCTCATGAAATTCTAAATG [CACACA_negctrl_site918],8.31 ± 0.4
20,AACTAAATGTTATTCGCACACGGAATTTATTTAATG [CACACA_site3664],8.37 ± 0.35
